Assay results: PubChem BioAssay (NCATS)
Records with an inconclusive call do not appear. Calls come from the whole dose curve; as a rule, active = well fitted cell-killing curve with a large enough effect; inconclusive = small, poorly fitted or top-dose-only effect; inactive = no such curve, though single readings can be large or run the other way. Where a structure was tested more than once in an assay, its records may differ in their call. Some entries of the source have several records that differ or are many. This is not the full list of results. There may be further records. Values that stand side by side are repeats (runs, samples, wells, individuals or studies). A tag in brackets gives the origin of a value. Letters hold for one entry only.

Assay: qHTS of pediatric cancer cell lines to identify multiple opportunities for drug repurposing: Primary screen for A673 cells (AID 1347092); note: nearly all actives have a fitted effect of over 45% in size
Settings: A673 Ewing sarcoma viability, CellTiter-Glo ATP luminescence, 48 h; series mostly up to 46 µM
Description: Drug repurposing or repositioning has been offered as a strategy for drug development in oncology programs. This approach has special potential for childhood cancers and other rare or orphan diseases, where the expected return on new drug development has been a disincentive to pharmaceuticals. […] In this project we exploit the poly-pharmacology of drugs to discover new indications via phenotypic screening of a panel of 19 well-characterized cell lines derived from solid tumors seen in children and adolescents. The goal is to identify approved drugs with previously unrecognized anticancer properties that has the potential to reveal new mechanisms and biological processes involved in carcinogenesis or drug resistance. We employed a titration-based paradigm (quantitative high-throughput screening or qHTS), where all compounds were tested at multiple concentrations for their effect on cell viability. Concentration-response curves (CRCs) were derived directly from the primary screen, and both potency and efficacy values were used to identify compounds with robust bioactivity profiles. We screened the NIH Chemical Genomics Center (NCGC) Pharmaceutical Collection (NPC) and Mechanism Interrogation Plate (MIPE) small molecule collections of approved and investigational compounds against these cell lines; and measured metabolically active cells after 48 hours of compound treatment as a proxy for cell viability. […] Assay Submitter: Nathalia J. Martinez, National Center for Advancing Translational Sciences, National Institutes of Health, Rockville, MD, USA; email: natalia.martinez@nih.gov. Shen, M et al. Quantitative high-throughput phenotypic screening of pediatric cancer cell lines identifies multiple opportunities for drug repurposing. Oncotarget 2017 Dec 19;9(4):4758-4772. PMID 29435139.
The cells were obtained from University of North Carolina (UNC), Pediatric Preclinical Testing Program (PPT), and Coriell Institute (CI). qHTS cell viability assay: Cells were assayed in growth media at a density of 500-1,000 cells/well. Five microliters of cells were dispensed into 1,536-well, white, solid-bottom, TC-treated plates (Greiner Bio One) using a multidrop dispenser and incubated at 37 degrees C, 5% CO2, under a humidified atmosphere for 5 hours. Twenty-three nanoliters of compounds and controls (neutral control DMSO or positive control bortezomib at final concentration of 2.3 uM) were subsequently transferred by Kalypsys pintool. For primary screens, the MIPE collection was tested at 11-point dilutions (final concentrations range from 0.78 nM to 46 µM) and the NPC collection at 8-point dilutions (final concentrations range from 0.59 nM to 46 µM). Compounds tested in follow-up screens were assayed at 11-point dilutions. Cells were incubated for 48 hours, followed by addition of 3 uL of CellTiter-Glo (Promega). After a 15min incubation at room temperature, samples were analyzed for luminescence intensity using a ViewLux High-throughput CCD imager equipped with clear filters.
Potency is the fitted concentration of half-maximal effect.

Q: For `CC(C)(Sc1cc(C(C)(C)C)c(O)c(C(C)(C)C)c1)Sc1cc(C(C)(C)C)c(O)c(C(C)(C)C)c1`, which Potency is on record?
A: Its Potency is “inactive [sample A] and active: 469 nM [sample B]”.

Q: With `CC(C(=O)O)c1ccc2c(c1)CC(=O)c1ccccc1S2` (stereo not drawn) as the compound, how does the Potency read?
A: Its Potency is “active: 469 nM [sample A] and inactive [sample B]”.

Q: Which Potency does the source give for `CCC(=O)O[C@]1(C(=O)SCF)[C@H](C)C[C@H]2[C@@H]3C[C@H](F)C4=CC(=O)C=C[C@]4(C)[C@@]3(F)[C@@H](O)C[C@@]21C` here?
A: Its Potency is “inactive [sample A] and active: 18.7 µM [sample B]”.

Q: Which Potency does the source give for `Clc1ccccc1CN1CCc2sccc2C1` here?
A: Its Potency is “active: 187 nM [sample A] and inactive [sample B]”.

Q: With `COc1cnc(NS(=O)(=O)c2ccc(N)cc2)nc1` as the compound, how does the Potency read?
A: The Potency was “inactive [sample A] and active: 9.35 µM [sample B]”.

Q: Which Potency does the source give for `Cc1nnc(NS(=O)(=O)c2ccc(N)cc2)s1` here?
A: The Potency was “inactive [sample A] and active: 935 nM [sample B]”.

Q: For `COc1ccc(C(=O)CC(=O)c2ccc(C(C)(C)C)cc2)cc1`, which Potency is on record?
A: The Potency was “inactive [sample A] and active: 743 nM [sample B]”.

Q: With `C[C@@H](CN1CC(=O)NC(=O)C1)N1CC(=O)NC(=O)C1` as the compound, how does the Potency read?
A: Its Potency is “inactive [sample A] and active: 2.96 µM [sample B]”.

Q: Which Potency does the source give for `CC(C)Cn1cnc2c(N)nc3ccccc3c21` here?
A: The Potency was “inactive [sample A] and active: 1.87 µM [sample B]”.

Q: Which Potency does the source give for `O=c1cc(O)c(Cl)c[nH]1` here?
A: The Potency was “active: 1.18 µM [sample A] and inactive [sample B]”.

Q: For `COc1cc2c(Nc3ccc(Br)cc3F)ncnc2cc1OCC1CCN(C)CC1`, which Potency is on record?
A: The Potency was “active: 18.7 µM [sample A] and inactive [sample B]”.

Q: With `CCOC(=O)[C@H](CCc1ccccc1)N[C@H]1CS[C@H](c2cccs2)CN(CC(=O)O)C1=O` as the compound, how does the Potency read?
A: The Potency was “active: 590 nM [sample A] and inactive [sample B]”.

Q: Which Potency does the source give for `CNC1CCCN(c2c(F)cc3c(=O)c(C(=O)O)cn(C4CC4)c3c2OC)C1` (stereo not drawn) here?
A: Its Potency is “active: 14.8 µM [sample A] and inactive [sample B]”.
